Results reported in US20220251234A1 (INSERM INSTITUT NATIONAL DE LA SANT ET DE LA RECHERCHE M …, published 2022).
“And” between values parts separate entries of the source, which are not always exact repeats. Equal entries are not always repeated.

Biological target: CD38 (ADP-ribosyl cyclase/cyclic ADP-ribose hydrolase 1), human (human, UniProt P28907 1-300)
Experiment: cell-based or functional assay

B1: Bi38-3 (bispecific antibody, not shown: small tags and cut ends)
chain: DIQMTQSPASLSASVGETVTITCRASENIYSFLAWYQQKQGKSPQLLVYNTKTLTEGVPSRFSGSGSGTQFSLKINNLQPEDFGSYYCQHHYGIPLTFGAGTKLELKGGGGSGGGGSGGGGSQVQLQQSGAELARPGASVKLSCKASGYTFTSYWMQWVKQRPGQGLEWIGAIYPGDGDTRYTQKFKGKATLTADKSSSTAYMQLSNLTSEDSAVYYCARERTTGAPRYFDVWGAGTTVTVSSGGGGSGGGGSGGGGS[about 120 residues not shown]GGGGSGGGGSGGGGSVDDIQLTQSPAIMSASPGEKVTMTCSASSSVSYMNWYQQKSGTSPKRWIYDTSKLASGVPAHFRGSGSGTSYSLTISGMEAEDAATYYCQQWSSNPFTFGSGTKLELKAAA
- T cell-mediated killing of KMS11 target cells (luciferase), EC50: ~5 ng/mL and ~0.09 nM
- T cell-mediated killing of MM1.S cells (luciferase), EC50: 0.5 ng/mL
